Structures can show the parent of a compound that is named as a salt. Some of the results follow. The data scatter; read single values as rough.
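Also: High-content imaging of ALDEFLUOR-stained cells with Hoechst-labelled nuclei in 384-well plates, triplicate wells, scored as Z-score against 0.1% DMSO vehicle, negative meaning fewer ALDHbr cells.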

This assay relates to T84. The experiment in a line: ALDHbr (CSC) cell proportion score relative to DMSO vehicle (ratio to DMSO); breast (SUM159) / gastric (MKN45) / pancreatic (PANC1) / colon cancer lines; ALDHbr cells have high ALDH activity and are rich in cancer stem cells (CSC); higher = more CSC (ALDHbr) cells remaining. Particulars: 10 µM; 72 h.
Turning to `OC(c1cc(C(F)(F)F)nc2c(C(F)(F)F)cccc12)C1CCCCN1` (stereo not given) [Mefloquine hydrochloride], the ALDHbr stood at 0.436.

`CCN(CC)CC#CCOC(=O)C(O)(c1ccccc1)C1CCCCC1` (stereo not given) [Oxybutynin chloride]: the ALDHbr came to 1.07.

With `CC(c1cc2ccccc2s1)N(O)C(N)=O` (stereo not given) [Zileuton], the ALDHbr came to 1.04.

For `C[C@@H](O)[C@H]1C(=O)N2C(C(=O)O)=C(S[C@@H]3CN[C@H](C(=O)N(C)C)C3)[C@H](C)[C@H]12` [Meropenem], the ALDHbr was found to be 0.79.

On to `COc1ccc(C[C@@H]2c3cc(OC)c(OC)cc3CC[N@+]2(C)CCC(=O)OCCCCCOC(=O)CC[N@@+]2(C)CCc3cc(OC)c(OC)cc3[C@H]2Cc2ccc(OC)c(OC)c2)cc1OC` [Cisatracurium besylate], for which the ALDHbr worked out at 0.811.

On to `CC(CCc1ccccc1)NCC(O)c1ccc(O)c(C(N)=O)c1` (stereo not given) [Labetalol hydrochloride], for which the ALDHbr came to 0.83.

On to `CC1=C(C(=O)O)N2C(=O)[C@@H](NC(=O)[C@H](N)c3ccc(O)cc3)[C@H]2SC1` [Cefadroxil], for which the ALDHbr was 1.02.

Regarding `Clc1ccc(CCC(Cn2ccnc2)Sc2c(Cl)cccc2Cl)cc1` (stereo not given) [Butoconazole nitrate], the ALDHbr turned out to be 0.61.

Turning to `CCC[C@@H]1C[C@@H](C(=O)N[C@@H]([C@H]2O[C@H](SC)[C@H](O)[C@@H](O)[C@H]2O)[C@@H](C)O)N(C)C1` [Lincomycin hydrochloride], the ALDHbr came to 0.934.

For `Cc1ccsc1/C=C/C1=NCCCN1C` [Morantel tartrate], the ALDHbr turned out to be 0.97.

Turning to `N#Cc1cc(NC(=O)C(=O)O)c(Cl)c(NC(=O)C(=O)O)c1` [Lodoxamide], the ALDHbr was determined as 0.979.

For `CC(C)c1ccc2oc3nc(N)c(C(=O)O)cc3c(=O)c2c1` [Amlexanox], the ALDHbr came out at 0.881.

Take `CC(C)(S)C(N)C(=O)O` (racemic) [D,L-Penicillamine]: the ALDHbr was found to be 0.921.

On to `CC(C)NCC(O)c1ccc(NS(C)(=O)=O)cc1` (stereo not given) [Sotalol hydrochloride], for which the ALDHbr came out at 0.836.

On to `Cc1oncc1C(=O)Nc1ccc(C(F)(F)F)cc1` [Leflunomide], for which the ALDHbr is 1.04.

For the molecule `Cc1ccc(Cl)c(Nc2ccccc2C(=O)O)c1Cl` [Meclofenamic acid sodium salt monohydrate], the ALDHbr was determined as 1.19.

As to `CC12CC3CC(C)(C1)CC(N)(C3)C2` [Memantine Hydrochloride], the ALDHbr came out at 0.974.

Take `O=C(COc1ccc(Cl)cc1)N1CCN(Cc2ccc3c(c2)OCO3)CC1` [Fipexide hydrochloride]: the ALDHbr worked out at 0.984.

As to `CC(=O)Oc1ccccc1C(=O)O` [Acetylsalicylic acid], the ALDHbr was 0.983.

On to `CN1C(C(=O)Nc2ccccn2)=C(O)c2ccccc2S1(=O)=O` [Piroxicam], for which the ALDHbr was determined as 0.886.

Take `c1ccc(CNc2ncnc3nc[nH]c23)cc1` [Aminopurine, 6-benzyl]: the ALDHbr came to 0.842.

In the case of `COc1cccc(OC)c1C(=O)N[C@@H]1C(=O)N2[C@@H]1SC(C)(C)[C@@H]2C(=O)O` [Methicillin sodium], the ALDHbr is 1.03.

With `Cc1ccccc1C(=O)Nc1ccc(C(=O)N2CCCC(O)c3cc(Cl)ccc32)c(C)c1` (stereo not given) [Tolvaptan], the ALDHbr came out at 1.01.

On to `COc1ccc2c3c1O[C@H]1C[C@@H](O)C=C[C@@]31CCN(C)C2` [Galanthamine hydrobromide], for which the ALDHbr came to 0.862.

As for `CCCCOc1cc(C(=O)NCCN(CC)CC)c2ccccc2n1` [Dibucaine], the ALDHbr came to 0.834.

`Cc1ccc2c(c1)c1c3n2CCNC3CCC1` (stereo not given) [Pirlindole mesylate]: the ALDHbr was found to be 0.908.

Take `CCCCc1cc2ccccc2c(OCCN(C)C)n1` [Dimethisoquin hydrochloride]: the ALDHbr amounted to 0.893.

In the case of `CN[C@@H]1[C@@H](O)[C@@H](O[C@@H]2[C@@H](O)[C@H](O[C@H]3OC(CN)=CC[C@H]3N)[C@@H](N)C[C@H]2N)OC[C@]1(C)O` [Sisomicin sulfate], the ALDHbr worked out at 1.11.

For `CCCCCN(C)CCC(O)(P(=O)(O)O)P(=O)(O)O` [Ibandronate sodium], the ALDHbr turned out to be 0.925.

Regarding `CO[C@H]1/C=C/O[C@@]2(C)Oc3c(C)c(O)c4c(O)c(c(/C=N/N5CCN(C)CC5)c(O)c4c3C2=O)NC(=O)/C(C)=C\C=C\[C@H](C)[C@H](O)[C@@H](C)[C@@H](O)[C@@H](C)[C@H](OC(C)=O)[C@@H]1C` [Rifampicin], the ALDHbr is 1.01.

As for `C[C@@H]1CN(c2c(F)c(N)c3c(=O)c(C(=O)O)cn(C4CC4)c3c2F)C[C@H](C)N1` [Sparfloxacin], the ALDHbr worked out at 0.939.

Regarding `CCN(CC)C(=O)N1CCN(C)CC1` [Diethylcarbamazine citrate], the ALDHbr was determined as 1.1.

Take `Nc1cc(C(Cl)=C(Cl)Cl)c(S(N)(=O)=O)cc1S(N)(=O)=O` [Clorsulon]: the ALDHbr was 0.84.

As to `CN1C(=O)OC(C)(C)C1=O` [Trimethadione], the ALDHbr was 0.946.

Take `CO[C@@]1(NC(=O)Cc2cccs2)C(=O)N2C(C(=O)O)=C(COC(N)=O)CS[C@@H]21` [Cefoxitin sodium salt]: the ALDHbr is 1.04.

Turning to `CC1CCc2cc(F)cc3c(=O)c(C(=O)O)cn1c23` (stereo not given) [Flumequine], the ALDHbr came to 1.09.

Consider `CCOC(=O)O[C@]1(C(=O)OCCl)CC[C@H]2[C@@H]3CCC4=CC(=O)C=C[C@]4(C)[C@H]3[C@@H](O)C[C@@]21C` [Loteprednol etabonate], for which the ALDHbr worked out at 0.931.

In the case of `CC(C)OC(=O)CCC/C=C\C[C@@H]1[C@@H](CC[C@@H](O)CCc2ccccc2)[C@H](O)C[C@@H]1O` [Latanoprost], the ALDHbr was determined as 0.916.

Consider `Cc1cn([C@H]2C[C@H](N=[N+]=[N-])[C@@H](CO)O2)c(=O)[nH]c1=O` [Zidovudine, AZT], for which the ALDHbr stood at 0.808.

On to `CC(C)(C)NCC(O)COc1cccc2c1CC(O)C(O)C2` (stereo not given) [Nadolol], for which the ALDHbr was 0.915.

Source of the values: the supplement of paper PMC11880418.
